# From the supplement of paper PMC12632987
# Whole data set: some 4,500 sequences, median “median log2 fold change of GCK-ALFA target abundance (FLAG IP / Myc IP barcode read proportion)” near 0.078, cut for the lowest 2% near -0.6. This is one part of the list.
# B1: GBRAP_160_4373 (protein)
# chain: SEELEKLAKEIKELKKEFKEEAKDLSPEEARTLAIGVLSEVAALVFENEAVSEEVEDKIMKIIDEAIKKIRENEDASVEEIVEITEKALEEIIKLIEEEA
# B2: GBRAP_184_5064 (protein)
# chain: KIYEETIEVTNLEEAKEKMKELKEKIKNFKGDLIVHLKLPEFNKEIVKAILDELAEIKKAGYAKNITLGIDADTTEEEVDFLISTADEKGINVVVALREE
# B3: GBRAP_11_2682 (protein)
# chain: RKEALERAAELAERAAELAERLLEEGVDNEELLEELRRALEELRRLVKEHLDEAHRTLVEIAEEELEEALADPENAAAHIERLLAAARVLRYNLEEELEE
# B4: GBRAP_35_5572 (protein)
# chain: ETLEETTEMIIATIEDLTLAVEDMPLEDAVAAANSLVDTAEELVEEVKDNPELLKKLAEALKKLLEALEKYYGDSEAAKEAAAKVKKVIEKAEKLAKEAE
# B5: GBRAP_160_4306 (protein)
# chain: KEEYEKLKKEIKEIAEEAIKMLEGQSAEERKTIVKVALGEIRLLVDESPAISDELEEEIDKIADEAEEYLDANPDLTEEEVKELLKEAVEKILKLIEEHS
# B6: GBRAP_11_2845 (protein)
# chain: KKEKLKEIAEQADKVIALLDELIAAGTDDEELWKKLEEQLKKLQELVEKYLDESEKELAKLAKEELEEAKADPANAEQHLNNAKAFVSTLQGLVLLEIEE
# B7: GBRAP_14_3841 (protein)
# chain: SEELRRLLLEVVRRTVEAIRELAPEEYEEKVEEIERRLEAAVDEGLKTGDLDAAEAALIETAEATVREEFADLPETERAALIAEAVDELIEGLEEVEEKL
# B8: GBRAP_95_7030 (protein)
# chain: EDDRLAAESLVEVLETYIDLGDEEKAREAAERLVKLMKEEGFPELPKGISLEAAKIIVEKAIETLNEEDAEKLFEVVLKALEKEEDKEELRKHYEELKKK
# B9: GBRAP_160_4057 (protein)
# chain: SEKKEELKRLVREAEERTLEVIDEEGVEAARVVAAGEFGEVIMEAASDPEASDELVDRLAEIRDRLVAELAAAADASKEEQKEIVRRAAEEAIRAIEELY
# B10: GBRAP_125_3139 (protein)
# chain: MKAELLALAEALARALGYSEEEIAELRRLGEAHDPAQTIIAILLAEGFEELAELAREVLPKLTPEEIAELRALAESLRDKSREELRAALLAKLKELKAKQ
# B11: GBRAP_14_3849 (protein)
# chain: VEKLVEAVKKTAESLKKFAEEVLPEHAEEVKKKIDELAEKLIEKIKKEKLNKEEVEELADEFAEELGKYLKEKGYASDTEIAAFKAHVLSDILLELEKIE
# B12: GBRAP_11_2815 (protein)
# chain: MKEETKKIIELAERAAELAREYLEEAPGDEELLRELLRLTRELLELVKKNLDKGFVSLAEAALETVEEALRDPATREAYVANARGALETLKANIEEEADE
# B13: GBRAP_125_3027 (protein)
# chain: SMEETAANLAKIARALGFSEGDVAELVANALAHGIKGAMIALALALGDEELADLLERLTEEEVARVVAEAAAEIEANPDLTPEEVKALLLELARRAVAES
# B14: GBRAP_125_3133 (protein)
# chain: MTEEILEDLAIVARALGFSDDDVEEAVEIARKHGVKGTLYAIMLALGYEEVADLVEKITEEEAIEVLREVAARIREDPSLTPEEVVALIKELLKEKIAKK
# B15: GBRAP_160_4072 (protein)
# chain: SESLEKLKKKVKELAEEAKELIEGQSPEERLVIVEVMLGEIVLEAESNEEVSDELEDKIAEIADETVAKVRANPEMSEEELKELIEETEEKILKLIEEEE
# B16: GBRAP_39_5718 (protein)
# chain: EEEEEAEEIFSYYEARGAKLMYERGISLEEAYEELYAKALEIAKDDPELKAALEELKELAEKAGDEAKLAATGLMEDLVNGEDKEEILEDGKLLIKYLKS
# B17: GBRAP_128_3294 (protein)
# chain: SAEELRREYEERLRSLLGLSPEELREATLELIREAAKEGLEAVELFVEALEELLPEFSVEQLEAIAEALREARKEVDPETAALLADAESAALLEAEEKEE
# B18: GBRAP_160_4253 (protein)
# chain: SEKLKEIAEELREEVEETLAELPNLTPEELAAALAGEVGAAIMELIELGLVTDEQEDELIALEDEMVAVALNRPNLTIEEVKARIRALVDEIVAVLEKAA
# B19: GBRAP_160_4706 (protein)
# chain: SEVAEELIEYVDEEFERLKEEIVGESAEQRATLARGAFGEIIMELVENPEVSDELEDEVDEIGDELVATILANPDLTDEEVRALIDEAREKIKEAIKKKV
# B20: GBRAP_80_6766 (protein)
# chain: MEELARAVEEIAEAGPEEVPELIERARELLLKAGVSEEDAERFAEALRTIAEARPVIGEEEFRRRLAEVREEILAGDLEGAIAEAEVAAGEALLEKEEKE
# B21: GBRAP_53_6386 (protein)
# chain: KEEEIEKLIKEYRELLKKIEKAKPEEAVKLGKEAKEVLVELAKLGAPEEVLEELTKEFAKLVKKHPELEPIALELAKELAALGYENASGILAEELVEELE
# B22: GBRAP_128_3241 (protein)
# chain: MPEELKKEVDELLEKVINGDVEEAREATEKLVELMGTVDDETAEEIAEKLIEALKELTAEKLEAVADTLLANRGKLDPEKQVLAYDVAIEALELAEELEE
# B23: GBRAP_39_5650 (protein)
# chain: EEEEENELLFDYYLAKAEGYMVEKGISEEELIAEGKEILEEIAKEHPEIAELVKKLLEKMENGDEETKLAATGIALDYKEGLPIEEIKEHIEKFLKYVEK
# B24: GBRAP_52_6057 (protein)
# chain: MKEELEATAEQIAEAIAAGDMEGALALAEELIKTKSVEEITETLELAAERVAGLGEAEHERFVDLLDEIHDLMIEAGISEEDADIVVGNAEAALAKAVAA
# B25: GBRAP_125_2969 (protein)
# chain: MEEELLEDLGLIARALGLSEEEVEEAVRLAREHSVRGTLYAIMAALGYDELAELVAKITEEEAKEVLRRVAAWIRAHPDATPEEVVAKMKELLEEAIAKR
# B26: GBRAP_128_3192 (protein)
# chain: TEEELAAMTEKLIEIVKTKDKAEVKAAVKAALEAIRAAGLDLVEAFTEMAEAVASSLDAENVKKFGEAAKAAAAEIEGEGETLARLVDAIVLTEIEEKEE
# B27: GBRAP_96_7086 (protein)
# chain: VSEELLKLVKEVKEAAKTDEEKLLKLLEELSKYSEEEIEEAFKKVEFTPEEVRKIAEAATKLGEEKAEKLLLALAEAAVEAGKTEQVRVVIEVSEKLEKE
# B28: GBRAP_184_5354 (protein)
# chain: TTEDVLIEADTVEEAIAKLRAAAAEAAAAGATLNVLIKVPINTVEEAKALMAAIAEAAAAGVLANTVGIDGVSQDDEIIDALIEGADAAGVRVVLALDGS
# B29: GBRAP_184_5053 (protein)
# chain: KTFEATIKAENEEELKEKLEELKEEVKNHKGNLIVLVEVPEFTEEMIKTIMEKMKEILDKGYAKKITVGLDGKMSEEVVDLALKLADEAGVNVVLALDEE
# Target: GABARAP, O95166
# Sequence (O95166 whole entry, the tested form may be a part): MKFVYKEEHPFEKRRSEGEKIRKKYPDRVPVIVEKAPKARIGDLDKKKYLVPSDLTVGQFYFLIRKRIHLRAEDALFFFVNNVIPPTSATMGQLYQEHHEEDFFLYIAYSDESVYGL
# Assay: median log2 fold change of GCK-ALFA target abundance (FLAG IP / Myc IP barcode read proportion) (log2 ratio); each designed protein is fused to an ALFA-tag nanobody in HEK293 cells to bring the named protein to FLAG-tagged glucokinase (GCK); Myc marks an untargeted standard; higher = target protein stabilised (more abundant)
# Conditions: target protein: 3xFLAG-MCP-GCK-ALFA reporter; HEK293 landing pad (RPLP)
# In short: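 HEK293 landing-pad cells received a recombined binder library fused to the ALFA nanobody and were induced with 2 μg mL^−1 doxycycline, then transfected with a plasmid encoding a FLAG-tagged target and a Myc-tagged standard. Lysates were collected after 48 h for anti-FLAG and anti-Myc immunoprecipitation, and the circular RNA barcodes were reverse transcribed, amplified and sequenced. Target abundance for each binder is the median log2 ratio of FLAG to Myc barcode read proportions. Barcodes had to reach a proportion of at least 10^−7 in both replicates, each binder needed at least 3 barcodes per replicate, a pseudocount of 10^−6 was applied, and the two replicates were pooled.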
row,Binder,median log2 fold change
1,B1,0.0306
2,B2,0.127
3,B3,-0.882
4,B4,0.245
5,B5,-0.0648
6,B6,0.0872
7,B7,0.0649
8,B8,0.199
9,B9,0.193
10,B10,0.207
11,B11,0.383
12,B12,0.347
13,B13,0.134
14,B14,-0.744
15,B15,0.193
16,B16,0.108
17,B17,0.0897
18,B18,-0.073
19,B19,-0.293
20,B20,0.155
21,B21,0.205
22,B22,0.0281
23,B23,0.38
24,B24,0.0687
25,B25,-0.375
26,B26,0.132
27,B27,0.302
28,B28,-0.00595
29,B29,0.0997
